The campaign covered roughly 48,000 compounds. About 120 (0.25%) were called active. Another 4% or so got no clear call; they are omitted. Calls follow the shape of the dose curve; as a rule, active = well fitted activation curve with a large enough effect; inconclusive = small, poorly fitted or top-dose-only effect, or another doubt; inactive = no such curve, though single readings can be large or run the other way. The list shows a part of the results.
Assay: Primary qHTS for Identification of Small Molecule Activators of Huntingtin-Antisense Promoter Activity; also: nearly all actives have a fitted effect of over 55% in size
Conditions: HEK293 HTT-AS promoter firefly luciferase reporter, 24 h; series mostly up to 57.5 µM; activity change, positive = activation: at the top concentration
Procedure, shortened: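 Quantitative HTS used concentration series of up to 57.5 uM final on HEK293 luciferase reporter cells, 24 h at 37 degrees C. Readout was Dual-Glo firefly luminescence.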

Activity change, positive = activation, inactive:
Cc1ccc(CNC(=O)c2cn(C)c3ccc(S(=O)(=O)N4CCC(C)CC4)cc3c2=O)cc1 -1.66%
O=C(NCCCc1ccccc1)c1ccc2c(c1)sc1nc(-c3ccc(F)cc3)cn12 -7.35%
COc1ccccc1N1CCN(CC(O)COc2cccc3ccccc23)CC1 (stereo unspecified)
Cc1ccccc1CN1C(=O)c2ccccc2Sc2ccc(C(=O)NCCCN3CCOCC3)cc21 -20.5%
Cc1ccc(Sc2c(C)nn(-c3ccccc3)c2OC(=O)CC(C)C)cc1 -8.24%
CN1CCCC(CC2c3ccccc3Sc3ccccc32)C1 (stereo unspecified) -16%
CCOc1ccc(CC(=O)NCc2ccc3c(c2)CCN3C(=O)c2ccc(F)cc2)cc1OCC -18.6%
CCOc1ccc(C2c3[nH]c4ccccc4c3CCN2C(=O)CCC2CCCC2)cc1 (stereo unspecified) -26.8%
CCOC(=O)C1CCCN(S(=O)(=O)c2cc(Br)cc3c2N(C(=O)CC)CC3)C1 (stereo unspecified) -4.65%
Cc1ccc(COC(=O)c2ccc(-c3nnn(Cc4ccc(C)cc4)n3)cc2)cc1 -1.87%
Cc1ccn2c(=O)c(NC(=O)c3cccc([N+](=O)[O-])c3C)c(C)nc2c1 -20.4%
CCN(CCCNC(=O)CN1N=C(c2ccc(C)cc2)CCC1=O)c1ccccc1 -13.3%
O=c1cc(-c2ccccc2)nc(SCc2nc(-c3cccc(C(F)(F)F)c3)no2)[nH]1 -2.35%
CCCCN(CC)C(=O)Cn1cc2c(n1)-c1c(oc(C(=O)N3CCCC3)c1C)CC2 -24.3%
CC(=O)C(Sc1nc(-c2ccccc2Cl)nc2c1c(=O)n(C)c(=O)n2C)C(=O)N(C)C (stereo unspecified) -8.79%
CN1CCC(=C2c3ccccc3CC(=O)c3sccc32)CC1
Cc1ccc(Cn2c(Cc3ccccc3)nc3ccccc32)cc1 -32.3%
COC(=O)c1ccc(NC(=O)CCOc2ccccc2)cc1 27.9%
CC(COc1ccccc1)NN (stereo unspecified) -1.87%
CCOc1ccc(CN2C(=O)c3ccccc3Sc3ccc(C(=O)NC4CCC(C)CC4)cc32)cc1 (stereo unspecified) -28.8%
Cc1ccc(N(CC(=O)NCc2ccc(OC(C)C)cc2)S(=O)(=O)N(C)C)cc1 -24.6%
CCOC(=O)c1ccccc1NC(=O)CCc1c(C)nc2c(c1C)c(=O)n(C)c(=O)n2C -2.23%
COc1ccc(CNC(=O)CCS(=O)(=O)c2cc3c4c(c2)CCN4C(=O)CC3)cc1 -1.7%
O=C(NC1CC(=O)N(c2ccc(F)cc2)C1)C(c1ccccc1)c1ccccc1 (stereo unspecified) -15%
Cn1cc(C(=O)N2CCN(c3ccccc3)CC2)c(=O)c2cc(S(=O)(=O)N3CCCC3)ccc21 -4.53% [at 11.5 µM, percent change from vehicle, -100% = no light]
Cc1cccc(NC(=O)Cn2c(=O)oc3cc(S(=O)(=O)N4CCCCCC4)ccc32)c1 -50.4%
COc1ccc(-c2noc(CSc3nnc(-c4ccncc4)n3-c3ccc(OC)cc3)n2)cc1 -36.5%
COc1ccccc1NC(=O)C1=C(C)Nc2nc(SCc3ccccc3)nn2C1c1cccs1 (stereo unspecified) -18.8%
Cc1ccc(NC(=O)CN2C(=O)c3ccccc3Sc3ncccc32)c(C)c1 -30%
O=C(NCCc1ccc(Cl)cc1)c1ccc2c(c1)N(Cc1ccccc1)C(=O)CS2 -34%
CC(=O)c1ccc(NC(=O)c2nn(C)c3c2COc2ccccc2-3)cc1 21.4%
CCn1c(SCC(=O)Nc2cc(Cl)ccc2OC)nc2c([nH]c3ccccc32)c1=O -10.3%
CCOc1ccccc1NC(=O)N1CCC(N2CCN(Cc3ccccc3)C(=O)C2=O)CC1 -8.42%
CC(Oc1ccccc1F)C(=O)N1CCC(c2nc3ccccc3o2)CC1 (stereo unspecified) -27.5%
CCOC(=O)c1c(NC(=O)c2cc(-c3ccc(Br)cc3)on2)sc(C)c1C -1.38%
CCc1cc2c(-c3ccccc3)cc(=O)oc2c2c1OCN(Cc1ccc(C)cc1)C2 -16.6%
O=c1c2ccccc2nc(-c2ccc(Cl)cc2)n1CCCCOc1ccc(F)cc1 -2.38%
CC(C)c1ccc(NC(=O)CN(C)S(=O)(=O)c2ccc3c(c2)n(C)c(=O)c(=O)n3C)cc1 -10.2%
CCOC(=O)N1CCN(CCC(=O)Nc2cc(C)ccc2C)CC1 -4.39%
CCn1cnc2cc(NCc3ccc(N(C)C)cc3)ccc21 12.5%
CCC1CCCCN1C(=O)CSc1nc(-c2ccc(OC)cc2)cc(C(F)(F)F)n1 (stereo unspecified) -43.5%
CCCCCCCCCCCCOS(=O)(=O)O 0.895%
CCn1cc2nc(SCC(=O)Nc3cccc(Cl)c3C)n(Cc3ccc(Cl)cc3)c(=O)c2n1 -14%
CCc1ccc(CNC(=O)c2cnc3sc(N4CCCCCC4)nn3c2=O)cc1 -1.75%
CCOc1ccc(C(=O)Nc2ccc3nc(SCC(=O)N4CCCC4)sc3c2)cc1 -7.47%
Cc1ccc(CSc2nc3cccnc3n2Cc2nc(-c3ccccc3F)oc2C)cc1 -8.56%
CCOc1ccc(CNC(=O)CN2C(=O)CSc3c2c(C)nn3-c2ccccc2)cc1 -2.99%
COCCNC(=O)c1ccc(NC(=O)N2CCCCc3ccccc32)cc1 -18.6%
O=C(C1CC1)N1CCc2cc(Br)cc(S(=O)(=O)Nc3ccc(C(F)(F)F)cc3)c21 -50.3%
CCOc1ccc(-n2nc3ccc(NC(=O)COc4ccccc4C)cc3n2)cc1 -59.8%
COc1ccc(NC(=O)C(=O)NCCc2csc3nc(-c4ccccc4C)nn23)cc1 -8.05%
CCCC(=O)Nc1nnc(S(=O)(=O)N(C)c2ccccc2)s1 -8.11%
COc1ccc(S(=O)(=O)N(CCc2ccccc2)CC(=O)NCc2ccc(C)cc2)cc1 -21.3%
COc1ccccc1CCNC(=O)C1CCN(c2nc3ccccc3nc2C(F)(F)F)CC1 19.4%
COC(=O)c1ccccc1NC(=O)CSc1c2c(nc3ccc(Cl)cc13)CCCC2 -3.37%
COc1cccc(CNC(=O)C2CCCN(c3nnc(-n4c(C)ccc4C)s3)C2)c1 (stereo unspecified) -10.2%
CC1=C[C@@H]2[C@@H]([C@@H](O)C[C@@]3(C)[C@H]2C[C@@H](C)[C@]3(O)C(=O)CO)[C@@]2(C)Cc3cnn(-c4ccccc4)c3C=C12 -24.4%
CCCN(CCC)C(=O)C(CCC(=O)O)NC(=O)c1ccccc1 (stereo unspecified) -7.73%
O=C(NCC(c1cccnc1)N1CCN(Cc2ccccc2)CC1)C(=O)Nc1ccc(F)cc1 (stereo unspecified) 18.1%
CCOC(=O)c1ccccc1NC(=O)Cn1c(=O)n(-c2ccc(CC)cc2)c(=O)c2c(C)c(C(=O)N(C)C)sc21 -16.6%
CCOc1ccccc1CNC(=O)c1ccc2c(c1)nc1n2CCC(C)C1 (stereo unspecified) 0.383%
CC(=O)c1ccc(N2C(=O)Nc3ccccc3S2(=O)=O)cc1 -16%
CC(C)Sc1nc2sc3c(c2c(=O)n1-c1ccccc1)CCCC3 -19.4%
Cc1ccc(CSc2cn(CCNC(=O)c3cccs3)c3ccccc23)cc1 -41.8%
O=C(Nc1ccc(F)c(Cl)c1)C1CCN(S(=O)(=O)c2ccc3c(c2)CCCN3C(=O)C2CCC2)CC1 -18%
Cc1ccc(N2CC(NC(=O)c3ccccc3Br)CC2=O)cc1 (stereo unspecified) -8.67%
O=C(Cn1c(SCC(=O)Nc2ccc(F)cc2)nc2ccccc21)NCc1ccc(Cl)cc1 -20.5%
Nc1ncc(S(=O)(=O)Nc2ccc(OC(F)(F)F)cc2)cn1 -18.4%
CCOc1ccc(C(=O)NCCc2sc(-c3ccc(F)cc3)nc2C)cc1 -11.2%
CCOC(=O)c1ccc(NC(=O)CN2C(=O)c3cccnc3Sc3ccccc32)cc1 18.6%
COc1ccc(Nc2ncc(C(=O)N3CCN(c4ccccc4OC)CC3)c3ccccc23)cc1 -46.2%
Cc1ccccc1Cn1c(=O)n(CCCCCC(=O)NCc2ccc3c(c2)OCO3)c(=O)c2sccc21 -8.74%
O=C(Cn1ncc2c3ccccc3n(Cc3cccc(Cl)c3)c2c1=O)NCCC1=CCCCC1 -0.845%
CO[C@@]1(NC(=O)CSCC#N)C(=O)N2C(C(=O)O)=C(CSc3nnnn3C)CS[C@@H]21 -0.58%
CCN(CC)c1ccc(CNS(=O)(=O)c2cc3c(cc2C)NC(=O)CO3)cc1 -21.7%
COc1ccc(NC(=O)CSc2ncc3c(n2)-c2ccccc2N(C)S3(=O)=O)cc1Cl -6.11%
CCOc1ccc(NC(=O)Nc2c[nH]c(=O)[nH]c2=O)cc1 -0.293%
Cn1c(SCc2ccccc2Cl)nc(=O)c2c1NC(=O)CC2c1cc(F)ccc1F (stereo unspecified) -14.7%
Cn1cc(S(=O)(=O)N2CCCCC2)cc1C(=O)Nc1ccc(OC(F)(F)F)cc1 -20.6%
O=C(Cn1cc(S(=O)(=O)c2ccccc2)c(=O)c2cc3c(cc21)OCO3)Nc1ccccc1 -15.7%
O=C(NCCCc1ccccc1)c1nn(-c2ccccc2)nc1CO -30.8%
Cc1noc(-c2ccc(-c3noc(-c4cccc(Cl)c4)n3)cc2)n1 11.3%
Cc1ccc(S(=O)(=O)C(CNC(=O)c2ccc(C(F)(F)F)cc2)c2ccco2)cc1 (stereo unspecified) -3.33%
N=C(N)c1ccc(OCCCOc2ccc(C(=N)N)cc2)cc1 -8.5%
CCc1ccc2occ(CC(=O)Nc3sc4c(c3C(=O)NCCOC)CCCC4)c2c1 -28.3%
Cc1nc2nc(SCC(=O)NC3CCC(C)CC3)nn2c(C)c1Cc1ccccc1Cl (stereo unspecified) -18.7%
CCn1cc2nc(SCc3cccc(C)c3)n(CCc3ccccc3)c(=O)c2n1 -3.84%
Cc1nc2c(-c3ccccc3)c(C)nn2c(C)c1CCC(=O)NCc1ccccc1 -22.4%
Cc1ccc(S(=O)(=O)n2nc(-c3ccco3)nc2NCc2ccc(N(C)C)cc2)cc1 2.34%
CCOC(=O)c1ccc(NC(=O)CCC(=O)N2CCSc3ccccc32)cc1 -25.8%
CCc1ccc2oc(-c3ccc(C)c(NC(=O)c4ccc(C#N)cc4F)c3)nc2c1 -17.7%
CCc1ccc(NS(=O)(=O)c2c(-c3ccccc3)csc2C(=O)OC)cc1 -30.7%
Cc1cc(NCc2ccc(Cl)cc2)n2cnnc2n1 -70.1%
COc1ccccc1N(CC(=O)Nc1cc(C)cc(C)c1)S(C)(=O)=O -15.2%
O=C(Nc1nnc(S(=O)(=O)N2CCCCCC2)s1)c1ccccc1 23.4%
CN(Cc1ccco1)S(=O)(=O)c1nnc(NC(=O)c2ccccc2)s1 27%

Source: PubChem BioAssay AID1508624 (National Center for Advancing Translational Sciences (NCATS), 2021)
